# In paper PMC4336329 (PLoS ONE, 2015):
# About 2,200 (0.71%) of roughly 310,000 compounds showed an effect of 50% or more. Effects have a minus sign here. The list shows a part of the results.
# Target: human ether-à-go-go-related gene (hERG) potassium channel (human, UniProt Q12809)
# Assay: primary screen, population patch clamp on CHO cells stably expressing hERG
# Chain of human ether-à-go-go-related gene (hERG) potassium channel (Q12809 whole entry, looked up): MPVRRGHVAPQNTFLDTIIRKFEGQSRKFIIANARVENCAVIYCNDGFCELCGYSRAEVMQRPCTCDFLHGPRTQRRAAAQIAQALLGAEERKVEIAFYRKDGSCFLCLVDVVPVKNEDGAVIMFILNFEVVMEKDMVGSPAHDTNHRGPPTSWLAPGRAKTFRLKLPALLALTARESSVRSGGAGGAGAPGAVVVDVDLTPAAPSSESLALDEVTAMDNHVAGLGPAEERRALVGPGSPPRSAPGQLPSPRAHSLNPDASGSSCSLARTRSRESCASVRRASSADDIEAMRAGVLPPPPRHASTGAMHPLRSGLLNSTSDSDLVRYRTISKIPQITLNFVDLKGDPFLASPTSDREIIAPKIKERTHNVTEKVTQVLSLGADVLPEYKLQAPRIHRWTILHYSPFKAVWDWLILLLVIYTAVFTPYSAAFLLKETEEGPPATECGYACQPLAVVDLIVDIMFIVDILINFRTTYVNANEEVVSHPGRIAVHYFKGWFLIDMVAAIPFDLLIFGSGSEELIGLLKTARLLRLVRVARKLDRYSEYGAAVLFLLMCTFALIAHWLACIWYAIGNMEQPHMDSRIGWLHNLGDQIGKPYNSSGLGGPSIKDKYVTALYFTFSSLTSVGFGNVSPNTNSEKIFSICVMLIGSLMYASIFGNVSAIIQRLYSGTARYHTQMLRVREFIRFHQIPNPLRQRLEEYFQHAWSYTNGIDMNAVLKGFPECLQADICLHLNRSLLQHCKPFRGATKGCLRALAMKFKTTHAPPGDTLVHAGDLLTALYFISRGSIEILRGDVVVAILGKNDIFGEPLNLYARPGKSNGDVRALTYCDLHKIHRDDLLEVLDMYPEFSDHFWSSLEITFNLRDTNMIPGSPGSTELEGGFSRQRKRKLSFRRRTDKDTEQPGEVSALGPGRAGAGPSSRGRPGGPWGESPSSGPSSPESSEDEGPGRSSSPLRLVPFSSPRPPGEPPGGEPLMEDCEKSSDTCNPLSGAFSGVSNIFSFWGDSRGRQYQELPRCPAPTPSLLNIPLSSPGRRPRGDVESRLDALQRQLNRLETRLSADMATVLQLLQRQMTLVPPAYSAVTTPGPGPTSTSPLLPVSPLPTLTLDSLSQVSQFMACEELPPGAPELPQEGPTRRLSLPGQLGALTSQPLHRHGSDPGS
row,Compound,"hERG current change (%, negative = inhibition) at 1uM [%]"
1,COC(=O)C(NC(=O)c1ccccc1)=C1C=C(C)OC(C)=C1,17.4
2,COc1ccc(C(=O)NC2CCSc3ccccc32)cc1 (centres unmarked),11.2
3,O=C(NC(=S)Nc1ccc(S(=O)(=O)N2CCCC2)cc1)c1cccs1,-9.08
4,CCN(CC)C(=S)SCC(=O)Nc1ncc2c(n1)CC(C)(C)CC2=O,8.32
5,Cc1ccc(-n2nc3c(c2NC(=O)c2ccco2)CS(=O)(=O)C3)cc1,-0.668
6,COc1ccc(N=Cc2cccc(C)c2O)cc1Cl,10.4
7,Cc1cc(/C=C2\C(=N)N3N=C(C(C)C)SC3=NC2=O)c(C)n1-c1ccccc1,23.1
8,CCC(C)n1c(SCC(=O)NC(=O)Nc2ccc3c(c2)OCCO3)nc2ccccc2c1=O (centres unmarked),13
9,CCCCc1ccc(S(=O)(=O)NCCCN2CCCC2=O)cc1,12
10,Cc1ccc2c(c1)N(C(=O)CCC(=O)NCCCN1CCOCC1)CC(C)O2 (centres unmarked),-1.87
11,COc1cc(S(=O)(=O)NCc2ccc3c(c2)OCO3)ccc1Cl,5.03
12,Cc1sc2ncnc(N3CCN(S(=O)(=O)c4ccccc4)CC3)c2c1C,-3.29
13,CCC(=O)n1nc(-c2ccc(OC)cc2)nc1SC,19.7
14,Cc1c(C(=O)N2CCN(c3ccccn3)CC2)sc2ncnc(N3CCOCC3)c12,-24.2
15,CSc1nsc(SCC(=O)Nc2ccc(F)cc2)n1,8.96
16,Cc1cc(/C=C2/C(=N)N3C(=NC2=O)SN=C3S(C)(=O)=O)c(C)n1-c1ccccc1,9.17
17,CC(=O)NCCc1ccc(S(=O)(=O)N2CCCC2)cc1,-3.83
18,C=CCNc1nc2ccccc2nc1NS(=O)(=O)c1ccc(F)cc1,7.86
19,COc1cc(C(=O)NNC(=O)c2ccccc2Br)ccc1OCC(=O)N1CCOCC1,22.2
20,COc1cccc(-c2cc(C(=O)N/N=C/c3cccc(OC)c3OC)c3ccccc3n2)c1,11
21,Cc1cc(C(=O)NC2CCCCC2)on1,10.2
22,Brc1cccc(CNc2nc3ccccc3n2CCN2CCOCC2)c1,-56.7

row,Compound,"hERG current change (%, negative = inhibition) at 1uM [%]"
1,COc1ccc(CNC(=O)CCCCCNc2nc(=S)[nH]c3ccccc23)cc1,15.8
2,Cc1ccccc1NC(=O)N1CCN(C/C=C/c2ccccc2)CC1,11
3,CCc1nc2ccccc2c(C(=O)OCC(=O)NCCCN2CCCC2=O)c1C,14
4,O=C(CSc1nnc(-c2ccccc2F)n1C1CC1)Nc1ccc2[nH]c(=O)[nH]c2c1,13
5,COc1ccc(C(=O)COC(=O)CSCc2c(C)noc2C)cc1OC,16.2
6,Nc1ccc2nc(-c3ccc(N)c(Cl)c3)[nH]c2c1,6.55
7,Cc1cccc2cc(CN(CCN(C)C)C(=S)NCc3ccco3)c(=O)[nH]c12,4.45
8,O=C(NCCc1ccccc1)c1ccccc1NC(=O)C1CCCO1 (centres unmarked),20.1
9,Cc1ccc(/C=C2\SC(=S)N(CCC(=O)NNS(=O)(=O)c3ccc(C)cc3)C2=O)cc1,23.7
10,COc1cc(C(=S)N2CCOCC2)ccc1OS(=O)(=O)c1ccc(Cl)cc1,6.75
11,CC(C)CCNc1nc(N2CCCC2)c2c(c1C#N)CCN(C)C2,0.441
12,COc1ccc(CN2C(=O)CC(=O)NC2=O)cc1,10.8
13,NNC(=O)c1nnn(-c2nonc2N)c1-c1cccs1,-10.6
14,COc1ccc(OC)c(CCNC(=O)CN2C(=O)CC(C)(C)S(=O)(=O)c3ccccc32)c1,10.7
15,O=C(Nc1cccc2ncccc12)c1ccc([N+](=O)[O-])o1,10.6
16,CCN(CC)S(=O)(=O)c1ccc(NC(=O)COC(=O)c2ccc(-n3nc(C)cc3C)cc2)cc1,-6.12
17,Cc1ccc(S(=O)(=O)N2CCCCC2)cc1NC(=O)C1CC(=O)N(c2ccc3c(c2)OCCO3)C1 (centres unmarked),3.16
18,CC(=O)NC1(C(F)(F)F)NC(=O)N(CC(C)C)C1=O (centres unmarked),0.652
19,CC1(CCc2ccccc2)NC(=O)N(CC(=O)Nc2ccc3c(c2)OCCO3)C1=O (centres unmarked),6.33
20,CCOc1cc(CNc2nn[nH]n2)ccc1OCC(=O)NC(C)(C)C,12
21,COc1ccccc1CNC(=O)CNC(=O)N1CC(=O)Nc2ccccc21,10.6
22,COc1cccc(-n2c(COc3ccc(C)cc3)nnc2SCC(=O)O)c1,6.98
